For 84 variants, enrichment ratio results are on record in a collection of fitness landscapes (doi:10.1126/science.1257360).

B1: PhoQ; a variant is named by its letters at X, in order, P23837 (parent)
chain: MKKLLRLFFPLSLRVRFLLATAAVVLVLSLAYGMVALIGYSVSFDKTTFRLLRGESNLFYTLAKWENNKLHVELPENIDKQSPTMTLIYDENGQLLWAQRDVPWLMKMIQPDWLKSNGFHEIEADVNDTSLLLSGDHSIQQQLQEVREDDDDAEMTHSVAVNVYPATSRMPKLTIVVVDTIPVELKSSYMVWSWFIYVLSANLLLVIPLLWVAAWWSLRPIEALAKEVRELEEHNRELLNPATTRELTSLVRNLNRLLKSERERYDKYRTTLTDLTHSLKTPLXXLQXXLRSLRSEKMSVSDAEPVMLEQISRISQQIGYYLHRASMRGGTLLSRELHPVAPLLDNLTSALNKVYQRKGVNISLDISPEISFVGEQNDFVEVMGNVLDNACKYCLEFVEISARQTDEHLYIVVEDDGPGIPLSKREVIFDRGQRVDTLRPGQGVGLAVAREITEQYEGKIVAGESMLGGARMEVIFGRQHSAPKDE

This is one part of the list.

In the assay the parent is B1. Kind of assay: enrichment ratio after two sorts for PhoP signalling (ratio (wild type AVST 3.29)); higher = more functional. The following applies: with PhoP (E. coli).
As to WHCY, the enrichment ratio was no more than 0.25.

For the variant SKEH, the enrichment ratio was no more than 0.25. The result for TCCC reads 10.8. Then VWIV, with no more than 0.25; and LTGE, with no more than 0.25. Then WGGC, with no more than 0.25; and RDND, with no more than 0.25; and QYGV, with no more than 0.25. For the variant SLMR, the enrichment ratio is no more than 0.25. The result for TMVE reads no more than 0.25; that for KFSN, no more than 0.25. Regarding YPNI, the enrichment ratio was no more than 0.25. Then PWGM, with no more than 0.25; and VFNG, with no more than 0.25.

With NGSH, the enrichment ratio is no more than 0.25. The result for HSPF reads no more than 0.25; that for THSP, no more than 0.25; that for ISIY, no more than 0.25. The result for THAK reads no more than 0.25; that for LGRY, no more than 0.25; that for VCEH, no more than 0.25. The result for DDSN reads no more than 0.25. Consider FMSG, for which the enrichment ratio was no more than 0.25.

On to WYIN, for which the enrichment ratio was no more than 0.25. The result for PYFI reads no more than 0.25. The result for NNEY reads no more than 0.25; that for GGWM, no more than 0.25; that for DKGP, no more than 0.25. Then QKTF, with no more than 0.25; and YEHW, with no more than 0.25; and VRNG, with no more than 0.25. For QAPV, the enrichment ratio was no more than 0.25. The result for RISP reads no more than 0.25. Regarding ADPM, the enrichment ratio was no more than 0.25.

For the variant AYKY, the enrichment ratio was no more than 0.25. On to PIGK, for which the enrichment ratio is no more than 0.25.

Take SCGE: the enrichment ratio is 3.51. The result for TIGE reads 4.31; that for PFYC, no more than 0.25. The result for ETPH reads no more than 0.25; that for YEFI, no more than 0.25; that for AAIY, no more than 0.25. HHLA: the enrichment ratio is no more than 0.25. The result for DRVH reads no more than 0.25. The result for NFKN reads no more than 0.25. Then VIVN, with no more than 0.25; and VGYY, with no more than 0.25; and SDHS, with no more than 0.25. As for IQSH, the enrichment ratio is no more than 0.25.

As for GKDS, the enrichment ratio is no more than 0.25. Then MNYD, with no more than 0.25; and QGCR, with no more than 0.25; and LANA, with no more than 0.25. Then SKTK, with no more than 0.25; and QDQW, with no more than 0.25; and HMEY, with no more than 0.25.

Take SIEV: the enrichment ratio is 0.267.

Consider TPFN, for which the enrichment ratio was no more than 0.25. The result for GKYW reads no more than 0.25. The result for KETV reads no more than 0.25. As for YCTN, the enrichment ratio was no more than 0.25.

ERGQ: the enrichment ratio was no more than 0.25. As to YADP, the enrichment ratio was no more than 0.25. Consider PGEE, for which the enrichment ratio was no more than 0.25. With PYGF, the enrichment ratio is no more than 0.25. The result for INRW reads no more than 0.25; that for EIDD, no more than 0.25.

As for RFHE, the enrichment ratio was no more than 0.25. Consider YDER, for which the enrichment ratio was no more than 0.25. For the variant SSFE, the enrichment ratio is no more than 0.25. Then WFPK, with no more than 0.25. Then NIMH, with no more than 0.25. With RDIY, the enrichment ratio was no more than 0.25. As for QQTQ, the enrichment ratio is no more than 0.25. For PTLY, the enrichment ratio is no more than 0.25. Then TNYC, with no more than 0.25; and ICNR, with no more than 0.25; and DDKW, with no more than 0.25. The result for TAKL reads no more than 0.25; that for IVWY, no more than 0.25; that for GKAG, no more than 0.25. With DKCV, the enrichment ratio is no more than 0.25. As for YYNS, the enrichment ratio was no more than 0.25. WNWL: the enrichment ratio was no more than 0.25.
